Laboratory results taken from PubChem BioAssay AID686970 (National Center for Advancing Translational Sciences (NCATS), 2013).
Out of some 360,000 compounds screened, about 6,000 (1.7%) were called active. The shares of active, inactive and inconclusive entries below differ from those in the screen. Calls follow the shape of the dose curve; as a rule, active = well fitted cell-killing curve with a large enough effect; inconclusive = small, poorly fitted or top-dose-only effect, or effect the other way; inactive = flat fitted curve, though single readings scatter. No potency is given beside an inconclusive call; the fits are too rough.

experiment: qHTS for induction of synthetic lethality in tumor cells producing 2HG: qHTS for the HT-1080-NT fibrosarcoma cell line; settings: HT-1080-NT fibrosarcoma viability, CellTiter-Glo ATP luminescence, 48 h; activity, negative = less viability: at 46.1 µM (top of the series) unless noted;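 also: NT is the 2HG producing partner of a matched IDH1 knockdown line; nearly all actives have a fitted effect of over 55% in size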;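 as to activity, negative = less viability: 0% = DMSO-treated cells and -100% = media-only wells without cells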
Method in brief: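 Luminescent CellTiter-Glo readout after 48 hours of compound exposure at 37 degrees C defined viability of HT-1080-NT cells. Activity was normalized to DMSO wells and cell-free media wells; concentration-response curves were fitted and assigned curve classes.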
Potency is read from the fitted curve at half-maximal effect; tags tell the direction and shape of the fitted curve.

Which Potency does the source give for `Cc1ccc(-c2cc(C(=O)NC3=NCCS3)c3ccccc3n2)cc1C` here?
Its Potency is inconclusive [cytotoxic, single point].

For `CC(C(=O)NC1CCCC1)N(C(=O)c1ccc(-c2ccccc2)[nH]1)c1ccccc1F` (stereo unspecified), which Potency is on record?
Its Potency is inconclusive [cytotoxic, single point].

For `O=C(NC(c1ccc(Cl)cc1)c1cc(Cl)c2cccnc2c1O)c1cccnc1` (stereo unspecified), which Potency is on record?
Its Potency is inconclusive [cytotoxic, partial curve].

For `CCOC(=O)C(Cc1cc(N)c(Oc2ccc(OC)cc2)c(N)c1)NC(C)=O` (stereo unspecified), which activity, negative = less viability is on record?
The activity, negative = less viability was inconclusive: 9.14%.

For `CCCS(=O)(=O)NC(=O)C1(C)CCCN(C(=O)c2ccc(C(=O)OC)cc2)C1` (stereo unspecified), which Potency is on record?
Its Potency is inconclusive [rising, single point].

With `COC(=O)[C@@]12C[C@@H](CC(=O)NCc3cccc(C(F)(F)F)c3)C(=O)N(Cc3cccc4ccccc34)C1=CCC(C)(C)C2` as the compound, how does the Potency read?
The Potency was inconclusive [cytotoxic, single point].

Which Potency does the source give for `O=[N+]([O-])c1cc(Cl)cc(/C=N\Nc2ccccn2)c1O` here?
Its Potency is inconclusive [cytotoxic, full curve].

For `CCCC(C)C(=O)Nc1nc(C)c(-c2csc(Nc3ccc(Cl)cc3)n2)s1` (stereo unspecified), which Potency is on record?
Its Potency is “inactive”.

For `CCc1ccccc1NC(=O)Cn1nnc(C(=O)NCc2cccs2)c1N`, which Potency is on record?
The Potency was active: 5.8 µM.

With `Cc1ccccc1-n1ncc2c(SCC(=O)N3c4ccccc4CC3C)ncnc21` (stereo unspecified) as the compound, how does the Potency read?
Its Potency is inconclusive [cytotoxic, single point].

With `O=C(CCN1CCCCC1)c1ccc2c(c1)OCCO2` as the compound, how does the Potency read?
Its Potency is inconclusive [cytotoxic, full curve, poor fit].

For `CCC(=O)Nc1cccc(-c2cn3ccccc3n2)c1`, which activity, negative = less viability is on record?
The activity, negative = less viability was inconclusive: 32.2%.

With `CCN1CNC(=S)N(CCc2ccccc2)C1` as the compound, how does the Potency read?
Its Potency is “inactive”.

With `CCN(CCCn1c(=S)[nH]c2ccc(N3CCOCC3)cc2c1=O)c1ccccc1` as the compound, how does the Potency read?
The Potency was inconclusive [cytotoxic, single point].

For `COC(=O)c1ccc(-n2c(C)ccc2-c2ccccc2)cc1`, which Potency is on record?
Its Potency is inconclusive [cytotoxic, single point].

With `COc1cc(-c2nc(C(=O)NC3CCN(Cc4ccccc4)CC3)cc3c2[nH]c2ccccc23)cc(OC)c1OC` as the compound, how does the Potency read?
The Potency was inconclusive [cytotoxic, single point].

Which Potency does the source give for `Cn1ncc2c(Nc3cccc(Cl)c3)nc(Nc3cccc(Cl)c3)nc21` here?
The Potency was active: 14.6 µM.

Which Potency does the source give for `Cc1ccc(O)c(N=Cc2cccs2)c1` here?
Its Potency is “inactive”.

For `CCC(/C=C1\Sc2ccc(OC)cc2N1CCO)=C\c1sc2ccc(OC)cc2[n+]1CCO`, which Potency is on record?
The Potency was inconclusive [cytotoxic, single point].

Which Potency does the source give for `Cc1cccc(CC2S/C(=N/c3ccccn3)NC2=O)c1` (stereo unspecified) here?
The Potency was inconclusive [cytotoxic, single point].

With `O=C(NC1CCCC1)C(c1ccccc1)n1c(Cc2cc(F)cc(F)c2)nc2ccccc21` (stereo unspecified) as the compound, how does the Potency read?
Its Potency is inconclusive [cytotoxic, single point].

With `c1ccc(-n2c(SCc3nc(-c4cccs4)no3)nnc2-c2ccco2)cc1` as the compound, how does the Potency read?
The Potency was inconclusive [cytotoxic, single point].

For `COc1ccc(-c2cc(C(=O)Nc3ccccc3O)c3ccccc3n2)cc1`, which Potency is on record?
Its Potency is inconclusive [cytotoxic, single point].

With `Cc1ccc(NNC(=O)c2ccno2)cc1Cl` as the compound, how does the Potency read?
Its Potency is inconclusive [cytotoxic, single point].

With `CC1=NN(c2ccc(Cl)cc2)C(=O)C1C(c1ccccc1O)c1c(C)[nH]n(-c2ccc(Cl)cc2)c1=O` (stereo unspecified) as the compound, how does the Potency read?
Its Potency is active: 23.1 µM.

For `Cc1ccc2[nH]c(O)c(N=NC(=O)C3CC3c3ccccc3)c2c1Br` (stereo unspecified), which Potency is on record?
Its Potency is “inactive”.

Which Potency does the source give for `COC(=O)c1ccccc1S(=O)(=O)N1CCC(C(=O)OC(C)C(=O)Nc2ccccc2OC)CC1` (stereo unspecified) here?
Its Potency is “inactive”.

With `COc1cc(/C=C/C(=O)c2ccc(O)cc2)ccc1OCC#N` as the compound, how does the Potency read?
The Potency was “inactive”.

For `COc1ccc2cc(CNCCOCCOCCNCc3ccc4cc(OC)ccc4c3)ccc2c1`, which Potency is on record?
Its Potency is inconclusive [cytotoxic, single point].

For `CSc1ccccc1C(=O)N1CCc2ccc(NC(=O)c3ccccn3)cc2C1`, which Potency is on record?
Its Potency is inconclusive [cytotoxic, single point].

For `O=C(N/N=C/c1cccnc1)c1ccc(NC(=O)c2ccccc2Cl)cc1`, which activity, negative = less viability is on record?
The activity, negative = less viability was inconclusive: -8.19% [cytotoxic].

Which Potency does the source give for `CCOc1ccccc1N=c1oc2cc(O)ccc2cc1C(=O)NCC1CCCO1` (stereo unspecified) here?
Its Potency is inconclusive [cytotoxic, single point].

Which Potency does the source give for `CCOC(=O)N1CCN(S(=O)(=O)N(C)C)CC1` here?
The Potency was “inactive”.

With `CCCSc1nc(SCC(=O)NCc2ccccc2)c2c3c(sc2n1)COC(C)(CC)C3` (stereo unspecified) as the compound, how does the Potency read?
Its Potency is “inactive”.

For `Cc1oc(-c2ccc(Cl)cc2)nc1CS(=O)CC(=O)NCCCN1CCN(Cc2ccccc2)CC1` (stereo unspecified), which Potency is on record?
Its Potency is inconclusive [cytotoxic, single point].

Which Potency does the source give for `CC(=O)Nc1ccc(N/C=C2/CCCC2=O)cc1` here?
The Potency was inconclusive [rising, partial curve].

Which Potency does the source give for `O=C(c1cccs1)N1CCN(S(=O)(=O)c2ccccc2)CC1` here?
Its Potency is “inactive”.

Which Potency does the source give for `COc1ccc(OC)c(/C=C2\SC(=S)N(C(C(=O)O)c3ccccc3)C2=O)c1` (stereo unspecified) here?
The Potency was “inactive”.

For `COc1ccc(-c2nc3ccc(C)cn3c2CC2CCCCC2)cc1OC`, which Potency is on record?
The Potency was inconclusive [cytotoxic, single point].

For `CCc1nc2ccc(C(=O)Nc3cc(-c4ccccc4)ccc3OC)cn2c1N(C)CCCc1ccccc1`, which Potency is on record?
Its Potency is inconclusive [cytotoxic, single point].

With `NC(=O)c1cc([N+](=O)[O-])c(Cl)cc1NCc1ccccn1` as the compound, how does the Potency read?
The Potency was “inactive”.

For `Cc1cc(/C=N\NC(=O)CC(=O)NC2CCCCC2)c(C)n1-c1ccc(Cl)c(Cl)c1`, which Potency is on record?
The Potency was inconclusive [cytotoxic, single point].

For `O=C(Nc1ccc(NC(=O)c2cccs2)cc1)c1ccco1`, which Potency is on record?
Its Potency is inconclusive [cytotoxic, single point].

With `CCn1c(SCC(=O)N2c3ccccc3CCc3ccccc32)nc2c1c(=O)n(C)c(=O)n2C` as the compound, how does the Potency read?
Its Potency is inconclusive [rising, single point].

Which activity, negative = less viability does the source give for `CC(c1ccccc1)N1CC(C(=O)Nc2ccc(F)cc2)CC1=O` (stereo unspecified) here?
Its activity, negative = less viability is inactive: -2.48% [at 9.24 µM].

Which Potency does the source give for `COc1cncc(C#Cc2ccccn2)c1` here?
The Potency was “inactive”.

With `COc1ccc(CNCC(O)(c2ccc(Cl)cc2)c2ccc(Cl)cc2)cc1OC` as the compound, how does the Potency read?
The Potency was inconclusive [cytotoxic, single point].

Which Potency does the source give for `O=C(NNc1nc(-c2ccccc2)cs1)c1ccco1` here?
Its Potency is inconclusive [cytotoxic, single point].

With `O=c1cc(-c2ccccc2Cl)oc2c(NS(=O)(=O)c3ccccc3C(F)(F)F)ccc(O)c12` as the compound, how does the Potency read?
Its Potency is inconclusive [cytotoxic, single point].

For `CCOC(=O)C(Cc1ccnc2ccccc12)=NO`, which Potency is on record?
Its Potency is active: 14.6 µM.

With `O=C(Cc1ccccc1)N/N=C/c1ccc([N+](=O)[O-])s1` as the compound, how does the Potency read?
The Potency was inconclusive [cytotoxic, single point].

With `FC(F)(F)c1ccccc1NC(=S)N1CCN(Cc2ccc3c(c2)OCO3)CC1` as the compound, how does the Potency read?
The Potency was inconclusive [cytotoxic, single point].

For `COC(=O)C1=C(C(=O)OC)SC(=C2C(=S)C(C)(C)N(C(=O)C3CC3)c3ccccc32)S1`, which Potency is on record?
The Potency was “inactive”.

For `CCCCCCCN1C(Nc2ccccc2)=NC[C@@H]1Cc1ccccc1`, which Potency is on record?
The Potency was inconclusive [cytotoxic, single point].

Which Potency does the source give for `COc1ccc(C)c2sc(N(CCN(C)C)C(=O)/C=C/c3cccs3)nc12` here?
Its Potency is active: 20.6 µM.

With `CC(=O)c1ccccc1OCCOCCOCCOc1ccccc1C(C)=O` as the compound, how does the Potency read?
The Potency was “inactive”.

With `COc1ccc(Nc2nc(N)c([N+](=O)[O-])c(NC3CCCCC3)n2)cc1` as the compound, how does the Potency read?
Its Potency is active: 16.4 µM.

For `O=C(O)Cc1c[nH]c2ccc(O)cc12`, which Potency is on record?
The Potency was inconclusive [cytotoxic, single point].

Which Potency does the source give for `Clc1nnc(N/N=C/c2ccccc2)c2ccccc12` here?
Its Potency is inconclusive [cytotoxic, single point].

With `CC1CC(C)CN(c2ncc3c(n2)CC(c2ccccc2)CC3=O)C1` (stereo unspecified) as the compound, how does the Potency read?
The Potency was “inactive”.

Which Potency does the source give for `CCCCCNC(=O)C(c1ccccc1F)n1c(=O)c(-c2ccco2)nc2ccccc21` (stereo unspecified) here?
Its Potency is “inactive”.

For `COc1ccc(CN2C[C@@H](CO)O[C@@H](n3cnc4c(N5CCN(c6ccccc6)CC5)ncnc43)C2)cc1`, which Potency is on record?
Its Potency is inconclusive [cytotoxic, single point].

Which activity, negative = less viability does the source give for `CCOC(=O)c1[nH]c(C)c(C(=O)OCCOc2cccc(C)c2)c1C` here?
Its activity, negative = less viability is inconclusive: -31.2% [cytotoxic].

Which Potency does the source give for `COc1ccc(CNC(=O)C2Cc3c(-c4ccccc4Oc4ccccc4)ccnc3O2)cc1OC` (stereo unspecified) here?
The Potency was inconclusive [cytotoxic, single point].

Which Potency does the source give for `CCC(CC)C(=O)NCc1ccc2c(c1)cc(C)n2C` here?
The Potency was inconclusive [cytotoxic, full curve, poor fit].

Which Potency does the source give for `CCn1c(SCc2ccc(OC)c(F)c2)nc2ccccc2c1=O` here?
The Potency was inconclusive [cytotoxic, single point].

Which Potency does the source give for `O=C1C=C(c2ccccc2)C(c2ccccc2)C1O` (stereo unspecified) here?
Its Potency is “inactive”.

With `Oc1ccc(CN2CCN(Cc3ccccc3)CC2)c2cccnc12` as the compound, how does the Potency read?
The Potency was inconclusive [cytotoxic, single point].

For `N#CCCN(Cc1cccnc1)C(=S)NC(=O)c1ccccc1`, which Potency is on record?
The Potency was “inactive”.

With `Cc1cnc(C)c(Nc2nc(C(N)CCc3ccccc3)cs2)n1` (stereo unspecified) as the compound, how does the Potency read?
Its Potency is inconclusive [cytotoxic, single point].

Which Potency does the source give for `CCCCCN1C(=O)Cn2c(nc3ccccc3c2=O)C1C` (stereo unspecified) here?
The Potency was “inactive”.
